The other results are listed elsewhere or left out. Sequences were assembled here from the parent chain. Inactive controls read about 0.05.
B1: TEV protease; numbered along this chain (parent)
chain: MGESLFKGPRDYNPISSSICHLTNESDGHTTSLYGIGFGPFIITNKHLFRRNNGTLVVQSLHGVFKVKDTTTLQQHLVDGRDMIIIRMPKDFPPFPQKLKFREPQREERICLVTTNFQTKSMSSMVSDTSCTFPSGDGIFWKHWIQTKDGQCGSPLVSTRDGFIVGIHSASNFTNTNNYFTSVPKNFMELLTNQEAQQWVSGWRLNADSVLWGGHKVFMVKPEEPFQPVKEATQL

Variants of: B1
Assay: raw area under fraction-flipped curve 0-4 h after induction (AUC4h, not background-subtracted), DNA-recorder readout of cleavage of the substrate (dimensionless); higher = more cleavage of the substrate by the protease variant
Details: temperature: 34 °C; time window: 0-4 h after rhamnose induction
Method: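 In vivo DNA recorder in E. coli TOP10(DE3) ΔrhaA at 34 °C. Each TEVp single-site mutant (parent TEVp 0) is paired with a single-site variant of the 7-mer TEVs (canonical ENLYFQ|S). The substrate sits between flexible linkers in a Bxb1-sfGFP-TEVs-SsrA fusion, so cleavage stabilises Bxb1 and speeds flipping of a recombination array, read by NGS. The value is the raw area under the fraction-flipped curve over 0-4 h after rhamnose induction (AUC4h), with ≥20 reads per time point. It is not background-subtracted; inactive controls average about 0.047.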
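Note: Bxb1 expression induced with 0.2% (w/v) L-rhamnose at OD600 near 0.5, cultures sampled hourly, flipped fraction per protease–substrate barcode pair counted by paired-end Illumina sequencing.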

## G37L
  area with substrate ENLYDQS: 0.0544
  area with substrate ENLYEQS: 0.0491
  area with substrate ENLYHQS: 0.0612
  area with substrate ENLYIQS: 0.102
  area with substrate ENLYLQS: 0.0606
  area with substrate ENLYNQS: 0.0743
  area with substrate ENLYPQS: 0.0575
  area with substrate ENLYQQS: 0.0567
  area with substrate ENLYRQS: 0.092
  area with substrate ENLYSQS: 0.0552
  area with substrate ENLYTQS: 0.0651
  area with substrate ENLYVQS: 0.12
  area with substrate ENLYWQS: 0.0554

## R10L
  area with substrate ENLYDQS: 0.0643
  area with substrate ENLYEQS: 0.0739
  area with substrate ENLYGQS: 0.0742
  area with substrate ENLYHQS: 0.0675
  area with substrate ENLYIQS: 0.145
  area with substrate ENLYKQS: 0.02
  area with substrate ENLYMQS: 0.097
  area with substrate ENLYNQS: 0.0862
  area with substrate ENLYPQS: 0.0814
  area with substrate ENLYQQS: 0.0638
  area with substrate ENLYWQS: 0.0798
  area with substrate ENLYYQS: 0.0784

## G202V
  area with substrate ENLYDQS: 0.0298
  area with substrate ENLYEQS: 0.0878
  area with substrate ENLYGQS: 0.0596
  area with substrate ENLYHQS: 0.0532
  area with substrate ENLYIQS: 0.0661
  area with substrate ENLYKQS: 0.039
  area with substrate ENLYNQS: 0.054
  area with substrate ENLYPQS: 0.0463
  area with substrate ENLYQQS: 0.0513
  area with substrate ENLYRQS: 0.0456
  area with substrate ENLYSQS: 0.0508
  area with substrate ENLYTQS: 0.0404
  area with substrate ENLYVQS: 0.0648
  area with substrate ENLYWQS: 0.0496
  area with substrate ENLYYQS: 0.0567

## T114M
  area with substrate ENLYDQS: 0.0759
  area with substrate ENLYEQS: 0.08
  area with substrate ENLYGQS: 0.0548
  area with substrate ENLYHQS: 0.0604
  area with substrate ENLYIQS: 0.118
  area with substrate ENLYKQS: 0.0483
  area with substrate ENLYNQS: 0.0568
  area with substrate ENLYPQS: 0.07
  area with substrate ENLYQQS: 0.08
  area with substrate ENLYSQS: 0.0792
  area with substrate ENLYVQS: 0.103
  area with substrate ENLYWQS: 0.0783

## H21K
  area with substrate ENLYDQS: 0.0552
  area with substrate ENLYEQS: 0.0734
  area with substrate ENLYGQS: 0.0664
  area with substrate ENLYHQS: 0.0644
  area with substrate ENLYIQS: 0.0984
  area with substrate ENLYLQS: 0.0902
  area with substrate ENLYMQS: 0.0818
  area with substrate ENLYNQS: 0.0666
  area with substrate ENLYPQS: 0.0726
  area with substrate ENLYRQS: 0.0562
  area with substrate ENLYSQS: 0.0552
  area with substrate ENLYVQS: 0.116
  area with substrate ENLYWQS: 0.0887
  area with substrate ENLYYQS: 0.0857

## W144T
  area with substrate ENLYDQS: 0.0621
  area with substrate ENLYEQS: 0.0596
  area with substrate ENLYGQS: 0.0736
  area with substrate ENLYNQS: 0.0697
  area with substrate ENLYSQS: 0.0744
  area with substrate ENLYTQS: 0.0854
  area with substrate ENLYVQS: 0.0833
  area with substrate ENLYYQS: 0.0729

## I36C
  area with substrate ENLYDQS: 0.0532
  area with substrate ENLYEQS: 0.0553
  area with substrate ENLYGQS: 0.0522
  area with substrate ENLYHQS: 0.0671
  area with substrate ENLYIQS: 0.108
  area with substrate ENLYKQS: 0.0666
  area with substrate ENLYLQS: 0.0619
  area with substrate ENLYMQS: 0.078
  area with substrate ENLYNQS: 0.0589
  area with substrate ENLYPQS: 0.072
  area with substrate ENLYQQS: 0.0629
  area with substrate ENLYSQS: 0.0566
  area with substrate ENLYTQS: 0.0735
  area with substrate ENLYVQS: 0.121
  area with substrate ENLYWQS: 0.0797

## K230G
  area with substrate ENLYDQS: 0.0585
  area with substrate ENLYEQS: 0.0409
  area with substrate ENLYGQS: 0.048
  area with substrate ENLYHQS: 0.0605
  area with substrate ENLYIQS: 0.0983
  area with substrate ENLYKQS: 0.0701
  area with substrate ENLYLQS: 0.075
  area with substrate ENLYNQS: 0.068
  area with substrate ENLYPQS: 0.0765
  area with substrate ENLYQQS: 0.0606
  area with substrate ENLYTQS: 0.0826
  area with substrate ENLYVQS: 0.128
  area with substrate ENLYWQS: 0.0984
  area with substrate ENLYYQS: 0.0717

## T233S
  area with substrate ENLYDQS: 0.0549
  area with substrate ENLYEQS: 0.0529
  area with substrate ENLYGQS: 0.0665
  area with substrate ENLYHQS: 0.0785
  area with substrate ENLYIQS: 0.152
  area with substrate ENLYKQS: 0.0406
  area with substrate ENLYLQS: 0.0607
  area with substrate ENLYMQS: 0.0952
  area with substrate ENLYNQS: 0.0597
  area with substrate ENLYPQS: 0.0777
  area with substrate ENLYQQS: 0.0636
  area with substrate ENLYRQS: 0.0743
  area with substrate ENLYSQS: 0.0779
  area with substrate ENLYTQS: 0.0822
  area with substrate ENLYWQS: 0.0846
  area with substrate ENLYYQS: 0.0737

## I86R
  area with substrate ENLYDQS: 0.0519
  area with substrate ENLYEQS: 0.0259
  area with substrate ENLYGQS: 0.0366
  area with substrate ENLYHQS: 0.0343
  area with substrate ENLYKQS: 0.0162
  area with substrate ENLYMQS: 0.0433
  area with substrate ENLYNQS: 0.0396
  area with substrate ENLYPQS: 0.0396
  area with substrate ENLYQQS: 0.0426
  area with substrate ENLYRQS: 0.0255
  area with substrate ENLYSQS: 0.037
  area with substrate ENLYYQS: 0.0486

## E108P
  area with substrate ENLYDQS: 0.0552
  area with substrate ENLYEQS: 0.0584
  area with substrate ENLYGQS: 0.0541
  area with substrate ENLYHQS: 0.0404
  area with substrate ENLYIQS: 0.0613
  area with substrate ENLYKQS: 0.0579
  area with substrate ENLYNQS: 0.0465
  area with substrate ENLYSQS: 0.0533
  area with substrate ENLYTQS: 0.0545
  area with substrate ENLYWQS: 0.0507

## I164H
  area with substrate ENLYDQS: 0.0617
  area with substrate ENLYEQS: 0.061
  area with substrate ENLYGQS: 0.0585
  area with substrate ENLYHQS: 0.052
  area with substrate ENLYIQS: 0.0478
  area with substrate ENLYKQS: 0.0423
  area with substrate ENLYMQS: 0.0543
  area with substrate ENLYNQS: 0.056
  area with substrate ENLYPQS: 0.0452
  area with substrate ENLYQQS: 0.0351
  area with substrate ENLYVQS: 0.06
  area with substrate ENLYWQS: 0.0472

## V67R
  area with substrate ENLYDQS: 0.0517
  area with substrate ENLYEQS: 0.0565
  area with substrate ENLYIQS: 0.0689
  area with substrate ENLYKQS: 0.056
  area with substrate ENLYMQS: 0.064
  area with substrate ENLYNQS: 0.0536
  area with substrate ENLYPQS: 0.0591
  area with substrate ENLYRQS: 0.0511
  area with substrate ENLYSQS: 0.0576
  area with substrate ENLYWQS: 0.0647

## G153N
  area with substrate ENLYDQS: 0.0468
  area with substrate ENLYEQS: 0.0547
  area with substrate ENLYGQS: 0.0476
  area with substrate ENLYHQS: 0.0591
  area with substrate ENLYIQS: 0.0448
  area with substrate ENLYKQS: 0.0515
  area with substrate ENLYMQS: 0.0566
  area with substrate ENLYPQS: 0.0458
  area with substrate ENLYQQS: 0.0344
  area with substrate ENLYVQS: 0.0661

Source: the supplement of paper PMC12217912
